Laboratory results from the supplement of paper PMC8007513.
Structures can show the parent of a compound that is named as a salt. ± gives the standard error. Among all 1,300 compounds or so, about 130 (10%) showed an effect of 50% or more. This is a selection; strong and weak results do not stand in their true shares.

System: Trichoderma virens ATCC 9645
Assay: growth yield (OD600) with compound + IPBC relative to untreated control; higher = less growth inhibition
Settings: compound concentration: 100 uM, IPBC concentration: 200 ng/ml
Outline: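 Plates were read for OD600 at 40 h and 72 h after Trichoderma virens ATCC 9645 spores (15,000 spores ml^−1 in potato dextrose broth) were grown at 30 °C with library compounds at 100 μM final, with or without a biocide at 200 ng ml^−1. Growth is stated relative to the control with neither agent, as the mean of duplicate screens.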

Row | SMILES | growth yield (40 h) [%] | growth yield (72 h) [%]
1 | NS(=O)(=O)c1cc2c(cc1Cl)NCNS2(=O)=O [Hydrochlorothiazide] + CCCCNC(=O)OCC#CI [3-iodo-2-propynyl butylcarbamate (IPBC)] | 89.11 ± 0.48 | 89.9 ± 2.2
2 | CN(C)CCc1c[nH]c2ccc(C[C@H]3COC(=O)N3)cc12 [Zolmitriptan] + CCCCNC(=O)OCC#CI [3-iodo-2-propynyl butylcarbamate (IPBC)] | 93.2 ± 4 | 96.3 ± 4
3 | O=c1[nH]c(=O)n([C@H]2C[C@H](O)[C@@H](CO)O2)cc1F [Floxuridine] + CCCCNC(=O)OCC#CI [3-iodo-2-propynyl butylcarbamate (IPBC)] | 4.45 | 19.1 ± 2.3
4 | CNNCc1ccc(C(=O)NC(C)C)cc1 [Procarbazine hydrochloride] + CCCCNC(=O)OCC#CI [3-iodo-2-propynyl butylcarbamate (IPBC)] | 93.4 ± 2.5 | 90.2 ± 1.3
5 | COc1cc2nc(N3CCN(C(=O)C4CCCO4)CC3)nc(N)c2cc1OC (stereo unspecified) [Terazosin hydrochloride] + CCCCNC(=O)OCC#CI [3-iodo-2-propynyl butylcarbamate (IPBC)] | 93.1 ± 3.2 | 95.02 ± 0.84
6 | Nc1ccc(S(=O)(=O)Nc2ccc(Cl)nn2)cc1 [Sulfachloropyridazine] + CCCCNC(=O)OCC#CI [3-iodo-2-propynyl butylcarbamate (IPBC)] | 92.1 ± 6 | 92.9 ± 7.5
7 | C#C[C@]1(O)CC[C@H]2[C@@H]3[C@H](C)CC4=C(CCC(=O)C4)[C@H]3CC[C@@]21C [Tibolone] + CCCCNC(=O)OCC#CI [3-iodo-2-propynyl butylcarbamate (IPBC)] | 80.1 ± 2.9 | 90.09 ± 0.1
8 | CO[C@]12C[C@@H](COC(=O)c3cncc(Br)c3)CN(C)[C@@H]1Cc1cn(C)c3cccc2c13 [Nicergoline] + CCCCNC(=O)OCC#CI [3-iodo-2-propynyl butylcarbamate (IPBC)] | 74.2 ± 8.4 | 93 ± 5.3
9 | CC(=O)OCC(=O)[C@@]1(O)CC[C@H]2[C@@H]3CCC4=CC(=O)C=C[C@]4(C)[C@@]3(F)[C@@H](O)C[C@@]21C [Isoflupredone acetate] + CCCCNC(=O)OCC#CI [3-iodo-2-propynyl butylcarbamate (IPBC)] | 87.8 ± 2.1 | 91.7 ± 1.1
10 | COc1cc(C(=O)N2CCOCC2)cc(OC)c1OC [Trimetozine] + CCCCNC(=O)OCC#CI [3-iodo-2-propynyl butylcarbamate (IPBC)] | 110 ± 8.4 | 103 ± 7.5
11 | CCC(=O)[C@@]1(C)[C@H](C)C[C@H]2[C@@H]3CCC4=CC(=O)C=C[C@]4(C)[C@H]3[C@@H](O)C[C@@]21C [Rimexolone] + CCCCNC(=O)OCC#CI [3-iodo-2-propynyl butylcarbamate (IPBC)] | 102 ± 6.7 | 99.1 ± 7.7
12 | CC(=O)Nc1c(I)c(NC(C)=O)c(I)c(C(=O)O)c1I [Diatrizoic acid dihydrate] + CCCCNC(=O)OCC#CI [3-iodo-2-propynyl butylcarbamate (IPBC)] | 87.52 ± 0.48 | 89.5 ± 1.8
13 | CN(N=O)C(=O)N[C@@H](C=O)[C@@H](O)[C@H](O)[C@H](O)CO [Streptozotocin] + CCCCNC(=O)OCC#CI [3-iodo-2-propynyl butylcarbamate (IPBC)] | 102 ± 6 | 105 ± 6.1
14 | O=C(N/N=C/c1ccc([N+](=O)[O-])o1)c1ccc(O)cc1 [Nifuroxazide] + CCCCNC(=O)OCC#CI [3-iodo-2-propynyl butylcarbamate (IPBC)] | 85.8 ± 7.9 | 87.6 ± 3.5
15 | CC(C)C[C@H](CN)CC(=O)O [Pregabalin] + CCCCNC(=O)OCC#CI [3-iodo-2-propynyl butylcarbamate (IPBC)] | 85.3 ± 0.79 | 89.14 ± 0.21
16 | CC(C)(O/N=C(\C(=O)N[C@@H]1C(=O)N2C(C(=O)[O-])=C(C[n+]3ccccc3)CS[C@H]12)c1csc(N)n1)C(=O)O [Ceftazidime pentahydrate] + CCCCNC(=O)OCC#CI [3-iodo-2-propynyl butylcarbamate (IPBC)] | 90.7 ± 0.79 | 95.75 ± 0.52
17 | Cc1c(Cl)cccc1Nc1ncccc1C(=O)O [Clonixin Lysinate] + CCCCNC(=O)OCC#CI [3-iodo-2-propynyl butylcarbamate (IPBC)] | 79.4 ± 5.7 | 95 ± 3.6
18 | CC(C)(C)NCC(O)c1ccccc1Cl (stereo unspecified) [Tulobuterol] + CCCCNC(=O)OCC#CI [3-iodo-2-propynyl butylcarbamate (IPBC)] | 101 ± 5.7 | 104 ± 7
19 | C[C@H]1[C@H](NC(=O)/C(=N\OC(C)(C)C(=O)O)c2csc(N)n2)C(=O)N1S(=O)(=O)O [Aztreonam] + CCCCNC(=O)OCC#CI [3-iodo-2-propynyl butylcarbamate (IPBC)] | 87.52 ± 0.48 | 95.86 ± 0.42

Row | SMILES | growth yield (40 h) [%] | growth yield (72 h) [%]
20 | CCc1c2c(nc3ccc(OC(=O)N4CCC(N5CCCCC5)CC4)cc13)-c1cc3c(c(=O)n1C2)COC(=O)[C@]3(O)CC [Irinotecan hydrochloride trihydrate] + CCCCNC(=O)OCC#CI [3-iodo-2-propynyl butylcarbamate (IPBC)] | 91.7 ± 2.4 | 98.6 ± 2.9
21 | CS(=O)(=O)Nc1ccc([N+](=O)[O-])cc1Oc1ccccc1 [Nimesulide] + CCCCNC(=O)OCC#CI [3-iodo-2-propynyl butylcarbamate (IPBC)] | 75.1 ± 1.8 | 89.5 ± 2
22 | CCn1cc(C(=O)O)c(=O)c2cc(F)c(N3CCNC(C)C3)c(F)c21 (stereo unspecified) [Lomefloxacin hydrochloride] + CCCCNC(=O)OCC#CI [3-iodo-2-propynyl butylcarbamate (IPBC)] | 87.4 ± 8.3 | 96.3 ± 6.5
23 | CNC(=C[N+](=O)[O-])NCCSCc1csc(CN(C)C)n1 [Nizatidine] + CCCCNC(=O)OCC#CI [3-iodo-2-propynyl butylcarbamate (IPBC)] | 88.31 ± 0.64 | 93.86 ± 0.32
24 | CC(C)CN(C[C@@H](O)[C@H](Cc1ccccc1)NC(=O)O[C@H]1CCOC1)S(=O)(=O)c1ccc(N)cc1 [Amprenavir] + CCCCNC(=O)OCC#CI [3-iodo-2-propynyl butylcarbamate (IPBC)] | 129 ± 5.2 | 124 ± 2.1
25 | C[C@]12C=CC(=O)C=C1CC[C@@H]1[C@@H]2C(=O)C[C@@]2(C)[C@H]1CC[C@]2(O)C(=O)CO [Prednisone] + CCCCNC(=O)OCC#CI [3-iodo-2-propynyl butylcarbamate (IPBC)] | 90.9 ± 1.9 | 91.5 ± 1.3
26 | C[C@]12Cc3c[nH]nc3C[C@@H]1CC[C@@H]1[C@@H]2CC[C@@]2(C)[C@H]1CC[C@]2(C)O [Stanozolol] + CCCCNC(=O)OCC#CI [3-iodo-2-propynyl butylcarbamate (IPBC)] | 91.02 ± 0.16 | 95.9
27 | C[C@@H]1CN(c2c(F)c(N)c3c(=O)c(C(=O)O)cn(C4CC4)c3c2F)C[C@H](C)N1 [Sparfloxacin] + CCCCNC(=O)OCC#CI [3-iodo-2-propynyl butylcarbamate (IPBC)] | 83.4 ± 2.1 | 86.8 ± 1.9
28 | CCn1cc(C(=O)O)c(=O)c2cc(F)c(N3CCN(C)CC3)cc21 [Pefloxacine] + CCCCNC(=O)OCC#CI [3-iodo-2-propynyl butylcarbamate (IPBC)] | 98 ± 14 | 98.5 ± 10
29 | CC(C)NCC(O)c1ccc(NS(C)(=O)=O)cc1 (stereo unspecified) [Sotalol hydrochloride] + CCCCNC(=O)OCC#CI [3-iodo-2-propynyl butylcarbamate (IPBC)] | 107 ± 1.8 | 103 ± 2.7
30 | CC(=O)N1CCN(c2ccc(OCC3COC(Cn4ccnc4)(c4ccc(Cl)cc4Cl)O3)cc2)CC1 (stereo unspecified) [Ketoconazole] + CCCCNC(=O)OCC#CI [3-iodo-2-propynyl butylcarbamate (IPBC)] | 3.34 ± 0.48 | 2.52 ± 0.42
31 | CCN(CC)CCCC(C)Nc1c2ccc(Cl)cc2nc2ccc(OC)cc12 (stereo unspecified) [Quinacrine dihydrochloride hydrate] + CCCCNC(=O)OCC#CI [3-iodo-2-propynyl butylcarbamate (IPBC)] | 64.8 ± 12 | 92.3 ± 2.9
32 | CCCCCCCCCCCCCCCC[N+](C)(C)CCN(Cc1ccc(OC)cc1)c1ncccn1 [Thonzonium bromide] + CCCCNC(=O)OCC#CI [3-iodo-2-propynyl butylcarbamate (IPBC)] | 3.34 ± 0.16 | 2.62 ± 0.1
33 | C[C@@H]1CC[C@H]2[C@@H](C)C(=O)O[C@@H]3O[C@@]4(C)CC[C@@H]1[C@]32OO4 [Artemisinin] + CCCCNC(=O)OCC#CI [3-iodo-2-propynyl butylcarbamate (IPBC)] | 32.4 ± 1.3 | 76.3 ± 1.1
34 | COC(=O)[C@H]1[C@H]2C[C@@H]3c4[nH]c5cc(OC)ccc5c4CCN3C[C@H]2C[C@@H](OC(=O)c2cc(OC)c(OC)c(OC)c2)[C@@H]1OC [Reserpine] + CCCCNC(=O)OCC#CI [3-iodo-2-propynyl butylcarbamate (IPBC)] | 102 ± 3.2 | 104 ± 2
35 | CNC(=C[N+](=O)[O-])NCCSCc1ccc(CN(C)C)o1 [Ranitidine hydrochloride] + CCCCNC(=O)OCC#CI [3-iodo-2-propynyl butylcarbamate (IPBC)] | 107 ± 1.4 | 109 ± 2.7
36 | CC(C)C[C@H](NC(=O)[C@@H](O)[C@H](N)Cc1ccccc1)C(=O)O [Ubenimex] + CCCCNC(=O)OCC#CI [3-iodo-2-propynyl butylcarbamate (IPBC)] | 111 ± 3.8 | 102 ± 2.3
37 | CCOC(=O)Nc1ccc2c(c1)N(C(=O)CCN1CCOCC1)c1ccccc1S2 [Moricizine hydrochloride] + CCCCNC(=O)OCC#CI [3-iodo-2-propynyl butylcarbamate (IPBC)] | 81 ± 2.9 | 91.7 ± 1.9
38 | C[C@@H](c1ncncc1F)[C@](O)(Cn1cncn1)c1ccc(F)cc1F [Voriconazole] + CCCCNC(=O)OCC#CI [3-iodo-2-propynyl butylcarbamate (IPBC)] | 5.24 ± 0.16 | 4.09 ± 0.1
